Publication PMC4336329 (PLoS ONE, 2015)
Hit rate of the full screen: of about 310,000 compounds, about 2,200 (0.71%) showed an effect of 50% or more. The effect is printed as a negative number. Some of the results follow.

These molecules were tested against human ether-à-go-go-related gene (hERG) potassium channel (human, UniProt Q12809) (assay: primary screen, population patch clamp on CHO cells stably expressing hERG).
Sequence of human ether-à-go-go-related gene (hERG) potassium channel (Q12809 whole entry, looked up): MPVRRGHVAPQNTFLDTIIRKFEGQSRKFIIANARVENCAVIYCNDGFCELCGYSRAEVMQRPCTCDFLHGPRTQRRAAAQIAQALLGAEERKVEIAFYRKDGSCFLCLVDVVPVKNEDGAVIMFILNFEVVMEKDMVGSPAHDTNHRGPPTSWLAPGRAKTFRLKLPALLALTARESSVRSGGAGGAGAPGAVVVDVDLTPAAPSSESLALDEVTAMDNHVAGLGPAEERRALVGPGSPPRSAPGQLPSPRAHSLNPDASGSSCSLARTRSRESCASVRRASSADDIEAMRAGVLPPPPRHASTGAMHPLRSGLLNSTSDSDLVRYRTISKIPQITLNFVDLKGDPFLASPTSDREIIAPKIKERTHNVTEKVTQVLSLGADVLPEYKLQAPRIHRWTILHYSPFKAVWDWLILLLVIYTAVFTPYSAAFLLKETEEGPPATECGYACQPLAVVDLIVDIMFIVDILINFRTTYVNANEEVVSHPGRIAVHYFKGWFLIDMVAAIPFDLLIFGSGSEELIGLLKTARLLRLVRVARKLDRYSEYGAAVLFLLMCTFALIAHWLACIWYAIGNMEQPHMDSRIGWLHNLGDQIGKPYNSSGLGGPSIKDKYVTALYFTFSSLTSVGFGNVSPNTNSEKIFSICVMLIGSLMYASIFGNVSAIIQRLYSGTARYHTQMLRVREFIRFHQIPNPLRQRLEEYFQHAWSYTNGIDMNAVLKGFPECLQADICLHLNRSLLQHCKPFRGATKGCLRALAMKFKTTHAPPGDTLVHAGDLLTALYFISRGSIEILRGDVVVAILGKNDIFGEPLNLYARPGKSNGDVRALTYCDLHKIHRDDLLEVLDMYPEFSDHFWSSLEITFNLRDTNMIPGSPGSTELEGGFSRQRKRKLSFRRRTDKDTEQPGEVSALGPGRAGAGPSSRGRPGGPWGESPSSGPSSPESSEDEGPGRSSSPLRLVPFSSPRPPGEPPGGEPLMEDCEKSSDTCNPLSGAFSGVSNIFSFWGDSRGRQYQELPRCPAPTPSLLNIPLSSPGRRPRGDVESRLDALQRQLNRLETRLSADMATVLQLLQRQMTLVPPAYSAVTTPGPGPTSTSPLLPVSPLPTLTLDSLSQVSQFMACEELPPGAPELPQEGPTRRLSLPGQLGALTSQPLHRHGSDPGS

Row | Compound | hERG current change (%, negative = inhibition) at 1uM [%]
1 | COc1cccc(C(=O)OCC(=O)NC(C)CCc2ccccc2)c1O (stereo not drawn) | 13.8
2 | COc1ccc(NC(=O)CN2C(=O)NC(C)(C3CCCCC3)C2=O)c(OC)c1 (stereo not drawn) | -3.85
3 | Br.CN1CCc2cc(O)c(O)cc2C(c2ccccc2)C1 (stereo not drawn) | 2.53
4 | CC(C)(C)OC(=O)N1CCC(c2c(C(=O)O)cnn2-c2ccc(Cl)cc2)CC1 | 6.14
5 | Cc1ccsc1/C=N/NC(=O)c1ccc2nc[nH]c2c1 | -0.669
6 | C/C(N)=C(/C#N)C(=O)CSc1nn(-c2ccc(Cl)cc2)c(=S)s1 | 13.5
7 | Cc1ccc(C)n1NC(=O)c1ccco1 | 14.4
8 | COC(=O)c1cc(-c2ccc(OC)c(OC)c2)on1 | 4.97
9 | CN1CCN(c2cc(-c3ccccc3)nc3cc(-c4ccc(F)cc4)nn23)CC1 | -4.24
10 | O=C(NCc1ccc(-c2nc3ccccc3s2)cc1)c1ccco1 | 5.76
11 | CCCc1cc(=O)[nH]c(SC(C)C(=O)N2c3ccccc3CC2C)n1 (stereo not drawn) | 7.54
12 | Cc1ccc(C)c(S(=O)(=O)N2CCN(c3nc(-c4cccnc4)nc4ccccc34)CC2)c1 | 5.94
13 | CC(=O)NCCC(=O)Nc1cc(S(=O)(=O)N2CCCCC2)ccc1N1CCN(C)CC1 | 9.37
14 | CC1CCN(C(=O)C2CCN(S(=O)(=O)c3cccc4cccnc34)CC2)CC1 | 8.67
15 | Cc1ccccc1Nc1nc(Nc2ccccc2C)nc(SC2=NCCS2)n1 | -6.09
16 | Cc1ccc(-c2csc3ncn(/N=C/N(C)C)c(=O)c23)o1 | 14.9
17 | Cc1cc(N2CC(C(=O)O)CC2=O)ccc1Br (stereo not drawn) | 12
18 | Cc1cc(Nc2ccccc2)n(CCO)n1 | 2.49
19 | COc1cc(CNCc2ccccc2Cl)ccc1OCC(=O)NC1CCCCC1 | 5.77
20 | CC(=O)N1CCC(C(=O)NCCOc2cccc(C)c2)CC1 | 13.5
21 | Cc1c(O)c(CN(C)C)cc2c1oc(=O)c1ccccc12 | -1.4
22 | FC(F)(F)c1ccc(/C=N/n2c(COc3ccccc3)n[nH]c2=S)cc1 | 17

Row | Compound | hERG current change (%, negative = inhibition) at 1uM [%]
23 | COc1ccccc1N(C)S(=O)(=O)c1ccc(Cl)c(C(=O)OCc2c(C)noc2C)c1 | 13.1
24 | CCn1c(C)c(C2=CCN(S(=O)(=O)c3ccccc3)CC2)c2ccccc21 | -2.92
25 | COc1cc(/C=N/NC(=O)CC2C(=O)NN=C2C)ccc1O (stereo not drawn) | 6.18
26 | Nc1cc(-c2ccc(Cl)cc2)nn1S(=O)(=O)c1ccc(Cl)cc1 | 19.2
27 | CCOC(=O)c1sc(NC(C)=O)cc1C | 13.3
28 | Cc1cccc(C)c1NC(=O)C1(N(C(=O)c2ccccn2)c2ccc(O)cc2)CCCCC1 | -0.183
29 | CC(=O)Nc1ccc(C(=O)COC(=O)C2CC3CCCC(C2)C3=O)cc1 (stereo not drawn) | 19.3
30 | Cn1nnnc1SCc1nc2ccccc2s1 | 7.62
31 | COc1ccc(C(=O)N/N=C/c2cccc3cccnc23)cc1 | 8.12
32 | COC(=O)CCCCCN1C(=O)/C(=C\c2ccncc2)SC1=S | 13.2
33 | COc1ccc(CNC(=O)CCCn2nc(C)c3c(C)n(-c4ccccc4)nc3c2=O)cc1 | 12.3
34 | O=C(CSc1nnc(-c2ccco2)n1CC1CCCO1)c1ccc(F)cc1 (stereo not drawn) | 0.19
35 | CCOc1ccc(NC(=O)CN(C)C(=O)c2nc3nc(C)cc(C)n3n2)cc1OCC | 16.7
36 | Cc1ccccc1NC(=O)CSc1nc(N2CCCCC2)nc(N2CCCCC2)n1 | 5.79
37 | COc1cccc2[nH]c3ccccc3c(=O)c12 | 13.5
38 | COc1ccc(OCc2n(CC(=O)OC3CC(C)CCC3C(C)C)c3ccccc3[n+]2C)cc1.[Cl-] (stereo not drawn) | -45.5
39 | O=[N+]([O-])c1ccc(NC(=S)NCc2ccncc2)cc1 | 4.4
40 | COC(=O)c1ccccc1NC(=O)C1CCN(C(=O)N2CCOc3ccccc32)CC1 | -15.7
41 | CC1CC1C(=O)N(CCC1=CCCCC1)c1c(N)n(Cc2ccccc2)c(=O)[nH]c1=O (stereo not drawn) | 14.9
42 | O=C(CSc1ncccc1-c1nc2ccccc2[nH]1)NCc1ccco1 | -11.9
43 | COc1cccc(NC(=O)CN(C)CC(=O)Nc2cccc(C(F)(F)F)c2)c1 | -6.17
44 | Cc1ccc2oc(C(=O)Nc3nonc3C)c(C)c2c1 | 11.8

Row | Compound | hERG current change (%, negative = inhibition) at 1uM [%]
45 | Cc1c(Cl)cccc1NC(=O)CSc1nc2ncc(Cl)cc2[nH]1 | 13.7
46 | COc1cccc(CN2CC(C(=O)NCc3cnn(C)c3)CCC2=O)c1 (stereo not drawn) | 10.4
47 | Cc1ccc(/C=N/NC(=O)c2nnn(-c3nonc3N)c2-c2ccc3c(c2)OCO3)s1 | 15.2
48 | COc1ccc(N2CCN(c3ccc(NC(=O)NN)cc3)CC2)cc1 | 11.7
49 | COc1ccccc1C(=O)Nc1sc2c(c1C(N)=O)CCCC2 | 15.9
50 | COC(=O)c1cc(COC(=O)CNC(=O)c2cccc(C)c2)oc1C | 1.99
51 | Cc1cc(C)n(-c2cc(N3CCN(C(=O)c4cccc(Br)c4)CC3)ccc2[N+](=O)[O-])n1 | -12
52 | C=C1CCC[C@]2(C)C[C@H]3OC(=O)C(CNC(CC)CO)[C@H]3CC12 (stereo partly drawn) | 7.57
53 | CC(C)(C)C(=O)Nc1ccc(-c2nc3ccccc3c(=O)o2)cc1 | 8.39
54 | C/C=C/C=C\C(=O)Nc1cccc(C2=NOC3(C2)C[C@@H](C(N)=O)N(C(=O)c2cc([N+](=O)[O-])cc([N+](=O)[O-])c2)C3)c1 (stereo partly drawn) | 3.33
55 | CC1(C)CC(NC(=O)c2coc(=O)c(Br)c2)CC(C)(C)N1 | 5.88
56 | Cc1nn(Cc2ccc(Cl)cc2Cl)c(C)c1NC(=O)CCl | -13.9
57 | Cn1c(NCC(O)CO)nc2c1c(=O)n(Cc1ccc(Cl)c(Cl)c1)c(=O)n2C (stereo not drawn) | 0.157
58 | O=C(CN(C(=O)c1csnn1)c1cccc(C(F)(F)F)c1)NCc1ccc(F)cc1 | 10.2
59 | COC1=C(N2CCOCC2)C(=O)c2ccccc2C1=O | 12.4
60 | O=[N+]([O-])c1cccnc1Oc1ccc(F)cc1F | 4.35
61 | O=C(NCC1CCCO1)c1ccc(Cl)c(S(=O)(=O)Nc2ccccc2)c1 (stereo not drawn) | 16.5
62 | COc1ccc(OC)c(S(=O)(=O)n2c([N+](=O)[O-])cnc2C)c1 | 13.5
63 | CCOC(=O)CCc1c(C)c2ccc(OC3CCCCC3=O)c(C)c2oc1=O (stereo not drawn) | 7.51
64 | Cc1cc2c(cc1S(=O)(=O)Nc1ccc(OC(F)(F)F)cc1)OCC(=O)N2 | 1.61
65 | N=c1oc2ccccc2cc1C(=O)NCc1ccccc1 | 8.6
66 | CC1Cc2ccccc2N1C(=O)CSc1nccc(=O)[nH]1 (stereo not drawn) | 3.36

Row | Compound | hERG current change (%, negative = inhibition) at 1uM [%]
67 | COc1ccc(C(=O)N(CCc2ccccc2)Cc2ccccc2)c(OC)n1 | 8.4
68 | CC(C)Oc1cccc(OCCN2C(=O)c3ccccc3C2=O)c1 | 7.22
69 | CC(Sc1nnc(-c2cccs2)n1N)C(=O)NCC1CCCO1 (stereo not drawn) | 11.7
70 | O=C(O)C1=C(OCc2ccc(F)c(F)c2)C(=O)NCC1 | 13.4
71 | O=C(O/N=C\c1ccc(N2CCCCC2)c([N+](=O)[O-])c1)c1ccc(Cl)cc1Cl | 9.28
72 | COc1ccc(C(=O)N/C(=C\c2ccco2)C(=O)NCc2ccco2)cc1 | 7.82
73 | CC(=O)Nc1ccc(CNC(=O)C[N+]2(C)CCOCC2)cc1.[Cl-] | 14.8
74 | COc1ccc(C(=O)N/C(=C/c2cccnc2)C(=O)N2CCOCC2)cc1OC | 11.7
75 | COc1cc2c(cc1OC)CN(CC(=O)NC(=O)NCc1ccco1)CC2 | 3.94
76 | COc1ccc2c(c1)O[C@@H](c1cccc(C(F)(F)F)c1)[C@H](OC(=O)Nc1ccc(OC(F)F)cc1)C2=O | 3.96
77 | Cc1cc(/C=C(\C#N)C(=O)O)c(C)n1-c1ccc(Br)cc1 | 11.4
78 | COc1cc(C(C)=O)ccc1OCC(O)CN1CCN(c2c(C)cccc2C)CC1 (stereo not drawn) | -40.5
79 | O=C(c1ccc2[nH]c(=O)c(=O)[nH]c2c1)N1CCc2ccccc21 | 13.7
80 | O=C1c2ccccc2C(=O)N1CC1c2ccccc2CCN1C(=O)C1CCCCC1 (stereo not drawn) | -6.37
81 | CCOC(=O)N1CCN(C(=O)c2cccn3c(=O)c4cc(Cl)ccc4nc23)CC1 | -3.31
82 | Cc1cc2[nH]c(=O)c(=O)[nH]c2cc1S(=O)(=O)N1CCN(c2cccc(C(F)(F)F)c2)CC1 | 15.2
83 | O=c1cc(/C=C/c2cccs2)[nH]c2ccccc12 | 8.94
84 | Cc1ccc(C)c(NC(=O)c2cc(-c3cccnc3)nc3ccccc23)c1 | 14.4
85 | CC(CC(=O)Nc1nncs1)c1ccccc1 (stereo not drawn) | 3.75
86 | Cc1cc(Cl)cc2sc(NC(=O)c3ccco3)nc12 | 7.38
87 | Cc1cc(NC(=O)CSc2nnc(C)c(=O)[nH]2)no1 | 8.78
